The whole screen tested about 46,000 compounds, of which about 60 (0.1%) were called active. Not shown: some 3% with an inconclusive outcome. Calls follow the shape of the dose curve; as a rule, active = well fitted inhibition curve with a large enough effect; inconclusive = small, poorly fitted or top-dose-only effect; inactive = no such curve, though single readings can be large or run the other way. The list shows a part of the results.
Assay: Primary qHTS assay for Inhibitors of ovarian cancer metastasis using an organotypic tumor microenvironment (TME) model. Also: nearly all actives have a fitted effect of over 65% in size.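 As to activity change, negative = inhibition: plate controls were DMSO wells for no effect and tomatine positive control wells for full effect.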
Conditions: SKOV3ip1-GFP adhesion/invasion on 3D omental model, fluorescence; series mostly up to 45.8 µM; activity change, negative = inhibition: at the top concentration
Procedure, shortened: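 A 3D layer of primary human omental fibroblasts, mesothelial cells, fibronectin and collagen I, grown 48 hr, received SKOV3ip1-GFP cells in serum-free medium plus compounds at 0.36-46 umol/L. After 2 hr RT and 16 hr 37 C, fixed adherent GFP cells were counted; normalized to DMSO and tomatine.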

Activity change, negative = inhibition, inactive:
CCOc1ccc(Sc2cc(C(=O)NC(C)c3ccccc3)c3ccccc3n2)cc1 (centres undefined) -14.2%, Cc1ccc(OCC(=O)Nc2cc3nn(-c4ccccc4)nc3cc2C)cc1 -5.96%, Cc1ccsc1CN(C(=O)COc1ccc(Br)cc1)C1CCS(=O)(=O)C1 (centres undefined) -1.37%, Cc1ccc(C(=O)Nc2sc3c(c2C(=O)NCc2ccco2)CCC(C(C)(C)C)C3)cc1 (centres undefined) -8.41%, O=C(NCc1ccc(F)cc1)c1cc2n(n1)CCCN(Cc1ccc(F)cc1)C2=O 5.51%, Cc1cc(C)c(NC(=O)Cn2c(=O)n(-c3ccc(CC(=O)NCC4CCCO4)cc3)c(=O)c3ccccc32)c(C)c1 (centres undefined) 109%, Cc1ccc(NC(=O)Cn2cnc3sc(C(=O)O)c(C)c3c2=O)cc1Cl 1.25%, O=C(CSc1nnc(CNC(=O)c2cccc(F)c2)n1-c1ccccc1)Nc1ccccc1F 14.1%, CN[C@@H](C)C(=O)N[C@H]1CN(C(=O)CC(C)C)CC[C@H]2CC[C@@H](C(=O)NC(c3ccccc3)c3ccccc3)N2C1=O -5.23%, COc1cc(NC(=O)CN(c2ccc(C)cc2)S(=O)(=O)c2cccc3nonc23)cc(OC)c1 -20.2%, CCOc1ccccc1C(=O)Nc1ccc(S(=O)(=O)Nc2nc(C)cc(C)n2)cc1 9.85%, Cc1ccc2nc(NC(=O)COc3ccc(F)cc3)sc2c1 3.53%, Cc1c(CCNC(=O)c2ccc(Br)o2)sc2nc(-c3ccc(F)cc3)nn12 -15.4%, CCc1nn(CC(=O)NCCc2ccc(OC)cc2OC)c(=O)c2cc3c(OC)cccc3n12 -5.5%, CCOc1cc(CNC(=O)C2COc3ccccc3C2)cc(OCC)c1OCC (centres undefined) 2.22%, COc1ccc2c(c1)c1c(c(=O)n(Cc3ccccc3)c(=O)n1CC(=O)NCc1ccccc1Cl)n2C -3.45%, CCCCCn1c(C(C)NC(=O)c2ccccc2)nc2ccccc21 (centres undefined) 11.7%, COc1ccc(Nc2nc(-c3ccc(C)cc3)nc3ccccc23)c(OC)c1 -0.167%, CCOc1ccc(-c2nonc2NC(=O)COc2c(C)cc(C)cc2C)cc1OCC -6.15%, CCc1ccc(C(=O)c2cn(CC(=O)Nc3ccc4c(c3)OCO4)c3cc(OC)c(OC)cc3c2=O)cc1 -8.62%, CCOC(=O)C1CCC(CN(Cc2cccc(Br)c2)S(=O)(=O)c2ccc(C)cc2)CC1 (centres undefined) 5.61%, CCc1ccccc1NC(=O)c1c(NC(=O)c2ccccc2)sc2c1CCCC2 8.07%, O=C(COc1ccc(Cl)cc1)Nc1ccc(-c2nc3ccccc3s2)c(O)c1 5.42%, COc1ccc(CNC(=O)CCn2cccn2)cc1 6.71%, Cc1ccccc1C(=O)n1nc(-c2ccco2)nc1NCc1ccc(Cl)cc1 -1.8%, Cc1ccc2nc(N3CCN(c4cccc(Cl)c4)CC3)c(-n3nc(C)cc3C)nc2c1 1.62%, Cc1cccc(Oc2nc3c(C)cccn3c(=O)c2/C=C(\C#N)c2nc3ccccc3[nH]2)c1 5.7%, CCOC(=O)C1=C(CN2CCC(C)CC2)NC(=O)NC1c1ccc(F)cc1 (centres undefined) 6.32%, Cc1cc(C)c2c(=O)cc(CSCC(=O)Nc3ccccc3Cl)[nH]c2c1 6.87%, Cc1ccc(-c2cc3ncc4c(n3n2)-c2cc(C)ccc2OC4)cc1 9.34%, COc1ccc(OC)c2sc(N3CCN(C(=O)C(C)(C)C)CC3)nc12 4.78%, COc1cc(Cl)c(NC(=O)CCS(=O)(=O)c2cc3c(cc2Cl)NC(=O)CO3)c(OC)c1 -2.64%, CS(=O)(=O)c1ccc(-c2nnc(NC(=O)c3ccc4c(c3)OCCO4)o2)cc1 11.3%, CCN(CC)CCNC(=O)c1ccc(Cn2c(SCc3ccccc3)nc3cccnc32)cc1 -1.6%, COc1ccc(CNS(=O)(=O)c2cnc(N)nc2)c(OC)c1 9.28%, COc1ccc(CNC(=O)c2ccc(N3CCCC3)c(NC(=O)NCc3ccc(F)cc3)c2)cc1 3.89%, Cc1cccc(C)c1OCC(=O)NCC1(N(C)C)CCCCC1 12.4%, CNC(=O)c1c(NC(=O)c2ccc(S(=O)(=O)N3CCC(C)CC3)cc2)sc2c1CCC2 -10.8%, Cc1ccc(N2C(=O)CSC23C(=O)N(CC(=O)NCc2ccccc2)c2ccccc23)cc1C (centres undefined) -1.67%, CC(=O)c1ccc(NC(=O)Cn2cc(S(=O)(=O)Cc3cccc(Cl)c3)c3ccccc32)cc1 0.234%, CC(C)(O)[C@H]1CC[C@@](C)([C@H]2[C@@H](O)C[C@@]3(C)[C@@H]4C[C@H](O[C@@H]5O[C@H](CO)[C@@H](O)[C@H](O)[C@@H]5O)[C@H]5C(C)(C)[C@@H](O[C@@H]6OC[C@@H](O)[C@H](O)[C@@H]6O)CC[C@@]56C[C@@]46CC[C@]23C)O1 4.8%, CCOc1cc(CNC(=O)c2sc3ncnc(N(C)C4CCCCC4)c3c2C)ccc1OC -1.52%, CCc1nc2ccccc2n1CCCCOc1ccc(C)cc1 2.61%, CCN(C(=O)c1cc2c(s1)-c1c(C)cccc1OC2)c1ccccc1F 4.36%, CCC(=O)N1CCc2cc(Br)cc(S(=O)(=O)Nc3ccc(C)cc3C)c21 -6.08%, CC(C)Oc1ccc(CNC(=O)CCCN2C(=O)c3cccnc3Oc3ccc(Cl)cc32)cc1 15.5%, COc1ccc(-c2c(-c3ccc(O)cc3O)n[nH]c2C)cc1 -8.23% [at 92.2 µM], CCOc1ccc(NS(=O)(=O)c2ccc(-c3cc(C)no3)s2)cc1 5.43%, Cc1ccc(C)c(NC(=O)c2cnn(-c3cccc(F)c3)c2C2CCN(C(=O)OC(C)(C)C)CC2)c1 3.7%, COc1ccc(-n2nc(C(=O)N(C)c3cc(C)ccc3C)c3c4ccccc4n(C)c3c2=O)cc1Cl 1.68%, O=C(Cn1cc(SCc2c(F)cccc2Cl)c2ccccc21)N1CCCCCC1 0.835%, CCN(c1ccccc1)S(=O)(=O)c1ccc(NC(=O)c2cc(=O)c3cc(C)cc(C)c3o2)cc1 -4.63%, Cc1c(Cl)cccc1NC(=O)c1cnc2sc(N3CCOCC3)nn2c1=O 1.52%, COc1ccc(OC)c(CCNC(=O)CCCn2c(=O)c3cccn3c3ccccc32)c1 -5.37%, COc1ccc2oc(=O)cc(CN3CCN(Cc4ccccc4)CC3)c2c1 7.83%, O=C(Nc1ccc2nn(-c3ccccc3)nc2c1)c1cc2ccccc2o1 -4.96%, O=C(CSc1cn(CC(=O)N2CCOCC2)c2ccccc12)Nc1ccccc1F 1.23%, Cc1ccc(S(=O)(=O)Nc2ccc3c(c2)CCCN3C(=O)c2cccs2)cc1 -27.1%, CCc1ccc(CNc2ncnc3c2nc2n3CCCC2)cc1 4.29%, CCc1cccc(NC(=O)Cn2c(=O)ccc3cc(S(=O)(=O)N4CCC(C)CC4)ccc32)c1 28.6%, CCOc1ccccc1N1CC(c2nc3ccccc3n2CCOc2ccccc2)CC1=O (centres undefined) 2.27%, Cc1cc(C)c2c(CC(=O)N3CCN(c4cccc(Cl)c4)CC3)coc2c1 6.77%, O=C(c1ccc2c(c1)N(Cc1ccc(Cl)cc1)C(=O)c1ccccc1S2=O)N1CCOCC1 (centres undefined) -1.06%, COc1ccc(C(CNC(=O)c2oc3ccc(Cl)cc3c2C)N2CCCCC2)cc1 (centres undefined) 3.49%, CC1CCc2nc3ncn(Cc4ccccc4C#N)c(=O)c3cc2C1 (centres undefined) 2.14%, COc1cccc(N2CCN(C(=O)c3ccc(Cn4c(=O)[nH]c5cc(OC)c(OC)cc5c4=O)cc3)CC2)c1 -10.5%, COc1cccc(CSc2nc3cc(C(=O)NC4CCCC4)ccc3c(=O)n2Cc2ccccc2)c1 -6.77%, CCCCNc1nc2c(c(=O)n(Cc3ccc(Cl)cc3)c(=O)n2C)n1C 0.79%, CCCC(=O)N(c1ccc2oc3c(c2c1)CCCC3)S(=O)(=O)c1cc(C)ccc1C 5.24%

outcome, inactive:
Cc1ccc(-c2nc3n(n2)C(=O)CC(c2ccc(Cl)cc2)S3)cc1 (centres undefined), Cc1ccc(OCC(=O)OCc2cc(=O)n3nc(-c4cccs4)sc3n2)cc1C, CCN1CCN(c2nc3c(S(=O)(=O)c4ccc(Br)cc4)nnn3c3ccsc23)CC1, O=C(Cn1c(=O)c2cccn2c2ccccc21)NCCc1ccccc1, CCOc1ccccc1NC(=O)Cn1cc(C(=O)c2cccc(OC)c2)c(=O)c2ccc(C)nc21, COc1ccc(NC(=O)Cn2c(SCc3cc(C)ccc3C)nc3ccncc32)c(OC)c1OC, COc1ccc2c(CNCc3cccs3)c(C(=O)O)n(Cc3ccccc3)c2c1, Fc1ccc(-c2noc3ncnc(NCCc4ccccc4)c23)cc1, Cc1ccc(C)c(N2CCN(C(=O)C3CCCN(S(=O)(=O)c4ccc5c(c4)oc(=O)n5C)C3)CC2)c1 (centres undefined), COc1ccc(S(=O)(=O)Nc2ccc3c(c2)N(C(C)=O)CCC3)cc1F, Cc1ccc(-c2nnc(SCc3ccccc3C)o2)cc1, COc1ccc(-c2nc(C)c(CCNC(=O)C(=O)Nc3ccccc3OC)s2)cc1, COc1ccc(CCn2cc3c(c2-c2ccc(Br)cc2)c(=O)n(C)c(=O)n3C)cc1OC, COCCCNC(=O)c1ccc(NC(=O)c2nsc3ccccc23)cc1, COc1ccccc1CNC(=O)C1CCC(CNS(=O)(=O)c2ccc3c(c2)CCCC(=O)N3)CC1 (centres undefined), CCC1CN(C(=O)N2CCC(C(=O)NCCN(CC)CC)CC2)c2cc(C)ccc2O1 (centres undefined), CCOC(=O)c1scc(-c2ccccc2)c1S(=O)(=O)Nc1cc(OC)cc(OC)c1, CCc1cc(=O)oc2c3c(c(Cl)cc12)OCN(Cc1cccc(OC)c1)C3, COc1ccc(CC(=O)N2CCc3cc(OC)c(OC)cc3C2COc2ccc(OC)cc2)cc1 (centres undefined), CCC(=O)N1c2ccccc2CC1C(=O)NCCc1ccccc1C (centres undefined), Cc1cc2ccccc2n1CCNC(=O)c1cccc(Br)c1, Nc1nnc2c(n1)[nH]c1ccccc12, COC(=O)c1ccc(CSc2nc3c([nH]c4ccccc43)c(=O)n2-c2ccc(Cl)cc2)o1, O=C1CC(c2nc3ccccc3[nH]2)CN1c1cccc(Cl)c1 (centres undefined), Cc1cc(Cl)ccc1NC(=O)c1cc(S(=O)(=O)N2CCOCC2)cn1C
